The record followed here is publication PMC6307818.

Chains of the proteins cited; added tags and fusions are not shown. Residues count along the entry.
UniProt P52948, residues 1-880: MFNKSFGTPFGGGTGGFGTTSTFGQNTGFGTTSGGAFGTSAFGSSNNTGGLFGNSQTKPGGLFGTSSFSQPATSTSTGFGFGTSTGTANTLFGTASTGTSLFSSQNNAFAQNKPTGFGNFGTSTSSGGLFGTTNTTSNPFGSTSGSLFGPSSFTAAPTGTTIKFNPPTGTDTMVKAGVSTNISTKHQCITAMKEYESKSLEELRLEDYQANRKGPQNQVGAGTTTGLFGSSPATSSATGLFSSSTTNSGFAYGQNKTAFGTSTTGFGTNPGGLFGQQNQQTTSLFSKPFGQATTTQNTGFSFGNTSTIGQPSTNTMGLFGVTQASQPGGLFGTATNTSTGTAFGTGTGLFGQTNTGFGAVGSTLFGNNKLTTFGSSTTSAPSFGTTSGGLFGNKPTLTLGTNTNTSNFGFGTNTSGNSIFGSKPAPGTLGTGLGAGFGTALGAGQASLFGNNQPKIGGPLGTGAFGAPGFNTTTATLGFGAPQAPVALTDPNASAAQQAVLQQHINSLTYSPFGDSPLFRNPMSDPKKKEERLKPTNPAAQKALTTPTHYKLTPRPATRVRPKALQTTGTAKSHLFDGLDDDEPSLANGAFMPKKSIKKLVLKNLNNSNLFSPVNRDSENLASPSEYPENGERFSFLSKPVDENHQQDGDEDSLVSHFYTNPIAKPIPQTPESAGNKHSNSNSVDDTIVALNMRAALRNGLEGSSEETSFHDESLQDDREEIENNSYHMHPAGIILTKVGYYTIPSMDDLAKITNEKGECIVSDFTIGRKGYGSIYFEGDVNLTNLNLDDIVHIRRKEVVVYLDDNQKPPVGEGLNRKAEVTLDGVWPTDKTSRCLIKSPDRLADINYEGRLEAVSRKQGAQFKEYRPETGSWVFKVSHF
UniProt P37198: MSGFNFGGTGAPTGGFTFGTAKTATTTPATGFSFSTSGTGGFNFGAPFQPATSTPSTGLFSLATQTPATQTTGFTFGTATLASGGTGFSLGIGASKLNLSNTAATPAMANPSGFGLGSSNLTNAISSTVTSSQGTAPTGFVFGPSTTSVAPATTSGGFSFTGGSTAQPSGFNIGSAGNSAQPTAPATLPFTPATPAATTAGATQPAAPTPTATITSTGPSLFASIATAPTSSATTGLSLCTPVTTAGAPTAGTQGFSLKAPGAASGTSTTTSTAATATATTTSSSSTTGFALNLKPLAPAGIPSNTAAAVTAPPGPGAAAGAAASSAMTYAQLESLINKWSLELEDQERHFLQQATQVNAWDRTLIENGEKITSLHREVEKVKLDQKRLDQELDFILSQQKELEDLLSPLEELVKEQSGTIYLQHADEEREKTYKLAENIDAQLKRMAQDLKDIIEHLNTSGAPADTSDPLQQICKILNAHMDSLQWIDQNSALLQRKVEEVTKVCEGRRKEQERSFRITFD

Experiment in all cases: co-IP; GFP-Trap_MA magnetic beads (ChromoTek) with 300 ug lysate of HeLa cells transiently expressing GFP or GFP-NUP88 variants (48 h); 1 h at 4 C; 10 mM Tris/HCl pH 7.5, 150 mM NaCl, 0.5 mM EDTA; washes with 150, 250 and 500 mM NaCl; Western blot for endogenous NUP214, NUP62, NUP98
In assay [1] the target is T1, GFP-NUP88 p.D434Y (human) (UniProt Q99567).
T1 sequence: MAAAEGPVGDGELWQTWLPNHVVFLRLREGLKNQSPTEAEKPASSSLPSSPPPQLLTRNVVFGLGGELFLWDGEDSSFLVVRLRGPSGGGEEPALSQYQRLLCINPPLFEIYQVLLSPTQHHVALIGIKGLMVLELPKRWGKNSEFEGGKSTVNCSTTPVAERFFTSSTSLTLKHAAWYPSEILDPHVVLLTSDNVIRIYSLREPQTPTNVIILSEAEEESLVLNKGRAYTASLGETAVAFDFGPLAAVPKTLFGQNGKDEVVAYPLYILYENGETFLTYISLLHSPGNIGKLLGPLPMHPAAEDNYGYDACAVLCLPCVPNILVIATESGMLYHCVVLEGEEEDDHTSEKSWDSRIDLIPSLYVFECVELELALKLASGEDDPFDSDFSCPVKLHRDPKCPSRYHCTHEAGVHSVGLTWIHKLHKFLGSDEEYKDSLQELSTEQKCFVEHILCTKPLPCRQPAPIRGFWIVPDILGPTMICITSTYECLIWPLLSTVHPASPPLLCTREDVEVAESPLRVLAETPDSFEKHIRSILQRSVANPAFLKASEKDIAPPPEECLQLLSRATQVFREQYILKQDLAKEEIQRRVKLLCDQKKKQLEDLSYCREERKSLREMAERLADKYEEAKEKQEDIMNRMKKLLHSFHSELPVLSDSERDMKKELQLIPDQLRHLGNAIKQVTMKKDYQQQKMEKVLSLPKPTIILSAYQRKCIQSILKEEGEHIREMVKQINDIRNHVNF

The target in assay [2] is T2, GFP-NUP88 p.E634del (human) (UniProt Q99567).
T2 sequence: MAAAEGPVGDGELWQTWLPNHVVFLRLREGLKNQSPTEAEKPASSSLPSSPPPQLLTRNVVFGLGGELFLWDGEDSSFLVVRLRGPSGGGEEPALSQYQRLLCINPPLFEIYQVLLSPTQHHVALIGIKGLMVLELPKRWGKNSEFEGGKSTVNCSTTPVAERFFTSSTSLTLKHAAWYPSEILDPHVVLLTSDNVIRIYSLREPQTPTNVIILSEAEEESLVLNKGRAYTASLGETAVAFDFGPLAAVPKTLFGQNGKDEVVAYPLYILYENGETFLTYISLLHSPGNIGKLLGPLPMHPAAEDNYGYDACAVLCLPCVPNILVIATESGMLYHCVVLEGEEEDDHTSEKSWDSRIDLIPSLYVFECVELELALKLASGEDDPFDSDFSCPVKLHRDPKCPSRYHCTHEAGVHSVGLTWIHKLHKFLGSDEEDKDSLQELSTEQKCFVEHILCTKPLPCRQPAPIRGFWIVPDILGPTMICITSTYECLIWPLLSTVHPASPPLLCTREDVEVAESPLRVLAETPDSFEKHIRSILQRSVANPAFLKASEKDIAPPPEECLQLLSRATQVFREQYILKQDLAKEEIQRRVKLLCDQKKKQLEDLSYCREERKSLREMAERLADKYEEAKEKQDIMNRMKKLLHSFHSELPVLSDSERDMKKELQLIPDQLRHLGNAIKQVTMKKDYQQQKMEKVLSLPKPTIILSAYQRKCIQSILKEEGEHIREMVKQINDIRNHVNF

The target in assay [3] is T3, GFP-NUP88 p.R509* (human) (UniProt Q99567).
T3 sequence: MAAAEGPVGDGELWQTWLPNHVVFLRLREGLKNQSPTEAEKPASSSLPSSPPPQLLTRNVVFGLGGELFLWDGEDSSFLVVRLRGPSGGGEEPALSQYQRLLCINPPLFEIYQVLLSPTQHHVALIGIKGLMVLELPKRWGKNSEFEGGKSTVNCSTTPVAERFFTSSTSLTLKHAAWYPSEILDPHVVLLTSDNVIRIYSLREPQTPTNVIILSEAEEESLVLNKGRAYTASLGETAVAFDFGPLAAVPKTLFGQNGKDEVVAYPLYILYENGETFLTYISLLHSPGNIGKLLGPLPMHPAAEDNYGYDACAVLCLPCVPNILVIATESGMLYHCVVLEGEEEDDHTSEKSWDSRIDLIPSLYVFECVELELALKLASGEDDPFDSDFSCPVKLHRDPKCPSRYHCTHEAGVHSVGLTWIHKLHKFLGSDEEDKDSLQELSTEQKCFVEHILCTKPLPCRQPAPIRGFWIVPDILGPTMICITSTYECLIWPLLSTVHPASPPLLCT

Assay [4] concerns the target T4, GFP-NUP88 wild-type (human) (UniProt Q99567).
T4 sequence: T1 sequence with Y434D

Numbering of substitutions follows the chain as printed. These are yes or no findings as the source states them, for the method shown. In cells and extracts the contact can be indirect. Some results given as binding are weak or reduced against the parent protein; the word gives no strength. Tags and fused reporters may be left off the sequences shown.

With NUP98 (from UniProt P52948 1-880), the binding result in assay [1], in assay [2], in assay [3] and in assay [4] was “binds” throughout.

As for NUP62 (from UniProt P37198 1-522), the binding entry is listed as “binds” in assay [1], “no binding” in assay [2], “no binding” in assay [3] and “binds” in assay [4].
